From PubChem BioAssay AID1460 (National Center for Advancing Translational Sciences (NCATS), 2008)
Out of some 270,000 compounds screened, about 5,800 (2.1%) were called active. This list was built around the results that the source calls inconclusive (neither active nor inactive); the mix of calls is not that of the screen. Calls come from the whole dose curve; as a rule, active = well fitted inhibition curve with a large enough effect; inconclusive = small, poorly fitted or top-dose-only effect; inactive = flat fitted curve, though single readings scatter. A potency beside an inconclusive call is a rough fit, not a confirmed value.

Target: Microtubule-associated protein tau (Homo sapiens) (UniProt P10636)
Assay: qHTS for Inhibitors of Tau Fibril Formation, Thioflavin T Binding; note: nearly all actives have a fitted effect of over 55% in size
Conditions: recombinant tau K18 P301L (four-repeat tau fragment), heparin-induced fibrillization, ThT fluorescence; series mostly up to 57.4 µM; activity, negative = inhibition: at the top concentration
Summary of the method: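 Heparin-induced fibrillization of the P301L-mutant K18 repeat-domain fragment of human tau was followed by ThT binding in quantitative high-throughput format.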
% is set by controls: 0 for no effect and ±100 for the full control effect; potency is the fitted concentration of half-maximal effect; tags give direction and shape of the fitted curve.

Sequence of UniProt P10636 (P10636 whole entry, looked up): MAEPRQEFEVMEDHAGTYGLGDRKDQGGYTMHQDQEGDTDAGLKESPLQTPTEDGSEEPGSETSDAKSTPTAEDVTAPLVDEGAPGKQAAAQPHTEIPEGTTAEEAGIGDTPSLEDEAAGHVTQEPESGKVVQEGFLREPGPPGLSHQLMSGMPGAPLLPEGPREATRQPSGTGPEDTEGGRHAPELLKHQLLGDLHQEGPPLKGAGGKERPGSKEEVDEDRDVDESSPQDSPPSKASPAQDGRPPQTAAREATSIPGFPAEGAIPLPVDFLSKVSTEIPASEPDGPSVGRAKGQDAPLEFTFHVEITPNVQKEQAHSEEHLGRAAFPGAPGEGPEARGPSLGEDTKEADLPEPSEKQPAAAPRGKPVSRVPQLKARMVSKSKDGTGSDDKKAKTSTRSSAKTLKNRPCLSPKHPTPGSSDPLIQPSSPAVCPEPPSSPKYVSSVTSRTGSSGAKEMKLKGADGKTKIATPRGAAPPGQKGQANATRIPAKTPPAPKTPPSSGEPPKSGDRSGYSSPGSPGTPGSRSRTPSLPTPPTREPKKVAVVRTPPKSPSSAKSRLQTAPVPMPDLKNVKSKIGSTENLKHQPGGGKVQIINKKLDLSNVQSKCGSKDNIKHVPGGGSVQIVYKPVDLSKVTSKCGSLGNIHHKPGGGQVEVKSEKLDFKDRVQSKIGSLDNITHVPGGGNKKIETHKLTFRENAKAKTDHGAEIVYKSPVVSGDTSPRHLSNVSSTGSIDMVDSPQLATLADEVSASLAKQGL

SMILES | activity, negative = inhibition | Potency
Cc1cc(C(=O)CSc2ncccn2)c(C)n1Cc1ccco1 | inactive: -0.393% | 
CCOC(=O)c1c(-c2ccccc2)csc1NC(=O)CSc1nnc(C)s1 |  | inconclusive: 10 µM [inhibitor, partial curve]
S=C(NCc1cccs1)Nc1cccc2ccccc12 | inactive: -3.33% | 
CCn1c(C)cc(/C=C2\NC(=O)N(Cc3ccccc3)C2=O)c1C |  | inconclusive: 39.8 µM [inhibitor, single point]
COCCSc1nc2sc3c(c2c(=O)n1-c1ccccc1)CCN(C)C3 |  | inconclusive: 17.8 µM [inhibitor, partial curve, poor fit]
Cc1ccc(-n2c(Cn3c(C)nc4ccccc43)n[nH]c2=S)cc1 | inactive: -0.307% | 
CCN(C(=O)c1cc2c(=O)oc3ccccc3c2s1)c1ccc(C)c(C)c1 |  | inconclusive: 12.6 µM [inhibitor, partial curve]
O=C(/C=C/Nc1ccc(Br)cc1F)c1ccco1 |  | inconclusive: 15.8 µM [inhibitor, partial curve]
CCCOc1ccc(NC(=O)CC2C(=O)N(c3ccccc3)C(=O)N2Cc2ccc(F)cc2)cc1 (stereo not given) |  | inconclusive: 25.1 µM [activator, partial curve]
COc1cccc(-c2cc3nc(-c4ccccc4)cc(N4CCC5(CC4)OCCO5)n3n2)c1 |  | inconclusive: 10 µM [inhibitor, partial curve]
CN1CCN(C(=S)NC(=O)/C=C/c2cccs2)CC1 | inactive: -13.9% | 
COc1ccc(NC(=O)c2ccc3c(=O)n4nc(Nc5ccccc5C)sc4nc3c2)cc1Cl |  | inconclusive: 1.58 µM [inhibitor, full curve, poor fit]
Cc1[nH]c2c(C)cccc2c1CCNC(=O)c1ccc2c(c1[N+](=O)[O-])C(=O)c1ccccc1C2=O |  | inconclusive: 2 µM [inhibitor, full curve]
Cc1noc2c1C(c1ccc(N(C)C)cc1)C1=C(CC(C)(C)CC1=O)N2 (stereo not given) |  | inconclusive: 25.1 µM [inhibitor, partial curve]
CC(C)NC(=O)C1CCC(Cn2c(=O)c3sccc3n(CC(=O)N3CCCC3)c2=O)CC1 (stereo not given) |  | inconclusive: 0.0251 µM [activator, full curve, poor fit]
CCn1c2ccccc2c2cc(NC(=O)c3cc(OC)cc(OC)c3)ccc21 |  | inconclusive: 14.1 µM [inhibitor, partial curve]
O=C1NC2(C=Cc3c(ccc4ccccc34)O2)Oc2ccccc21 (stereo not given) |  | inconclusive: 25.1 µM [inhibitor, partial curve]
CCOc1ccc(NC(=O)c2cc3c(C)nn(-c4ccccc4)c3s2)cc1 | inactive: -8.69% | 
Cc1ccc(OCC(=O)N(Cc2ccc(Cl)cc2)Cc2ccco2)cc1C |  | inconclusive: 10 µM [inhibitor, partial curve]
C=C(C)CSc1nc2nc(C)c(Br)cc2[nH]1 | inactive: -12.7% | 
O=C(N/N=C/C=C/c1ccccc1)c1n[nH]c2c1CCC2 | inactive: -15.1% | 
O=C(CSc1nnc(Cc2ccccc2)n1Cc1ccco1)NC1CCCC1 | inactive: 0.616% | 
COc1cc2ccccc2cc1C(=O)N1CCN(C)CC1 | inactive: -11.1% | 

SMILES | activity, negative = inhibition | Potency
O=C(/C=C/c1cccs1)c1ccc(NC(=O)c2cccc(Br)c2)cc1 |  | active: 7.08 µM
CN1CCN(CCCNC(=O)c2ccc(Cn3c(=S)[nH]c4ccc(Br)cc4c3=O)cc2)CC1 |  | inconclusive: 20 µM [inhibitor, single point]
CC(=O)NS(=O)(=O)c1ccc(N=c2ssc3c2-c2cc(C)ccc2NC3(C)C)cc1 |  | inconclusive: 28.2 µM [inhibitor, single point]
Clc1ccc(-c2nnc3sc(-c4ccc(Br)o4)nn23)cc1 | inactive: 1.9% | 
CSc1nc2ccc(S(=O)(=O)N3CCCCC3)cc2s1 | inactive: -5.85% | 
COC(=O)C1=C(Nc2ccc(OC)cc2)C=C(C)C(C(=O)OC)C1c1ccc(C)cc1 (stereo not given) |  | inconclusive: 14.1 µM [inhibitor, partial curve, poor fit]
O=C(c1cnc2n(c1=O)CCS2)N1CCN(c2ccc([N+](=O)[O-])cc2)CC1 |  | inconclusive: 15.8 µM [inhibitor, partial curve]
CCOc1ccc(CCNC(=O)c2c(C)oc3ncn(CC(C)C)c(=O)c23)cc1 |  | inconclusive: 14.1 µM [inhibitor, partial curve]
CCCOc1cc(N(CC)CC)ccc1/C=C(/C#N)c1nc2ccc(C)cc2[nH]1 |  | inconclusive: 22.4 µM [inhibitor, partial curve]
CCOC(=O)C1=C(O)C(=O)N(CCCn2ccnc2)C1c1ccc(OC)cc1 (stereo not given) | inactive: 5.03% | 
Cc1cc(N2CCOCC2)nc2ccc(NC(=S)N3CCN(Cc4ccccc4)CC3)cc12 |  | inconclusive: 17.8 µM [inhibitor, partial curve]
COc1ccccc1N1CCN(C(=O)c2sc3nc(-c4ccccc4)cn3c2C)CC1 |  | inconclusive: 11.2 µM [inhibitor, partial curve, poor fit]
CCN(CC)c1nc2c(S(=O)(=O)c3ccccc3)nnn2c2ccc(Cl)cc12 | inactive: -10.6% | 
CCCSc1cc(N)cc([N+](=O)[O-])c1 |  | inconclusive: 22.4 µM [inhibitor, partial curve, poor fit]
Cc1ccc(C(=O)O/N=C2\CCSc3ccc(C)cc32)cc1 |  | inconclusive: 22.4 µM [inhibitor, partial curve]
COc1ccc(NC(=O)Nc2ccc3c(c2)N(C)C(=O)CS3)cc1Cl |  | inconclusive: 2.82 µM [inhibitor, full curve]
CC(=O)C1=NOC(CNc2ncc(C(F)(F)F)cc2Cl)C1 (stereo not given) | inactive: 4.21% | 
CCn1cc(C(=O)NCCCN2CCN(C)CC2)c(=O)c2cc(S(=O)(=O)N3CCc4ccccc4C3)ccc21 | inactive: 2.28% | 
COC(=O)c1ccc(NC(=O)CSc2nnc(COc3ccccc3)n2C)cc1 |  | inconclusive: 1.41 µM [inhibitor, full curve]
Cn1ncc2c1ncn1nc(COc3ccc4ccccc4c3)nc21 |  | inconclusive: 0.251 µM [inhibitor, full curve, poor fit]
CCN(c1ccc(NC(=O)COC(=O)c2cccs2)cc1)C(C)C | inactive: -21.1% | 
Cc1ccc(C(=O)NCC(c2ccc3c(c2)OCO3)N2CCN(c3ccc(F)cc3)CC2)cc1 (stereo not given) |  | inconclusive: 2 µM [inhibitor, full curve, poor fit]
